Test results published in PubChem BioAssay AID1461 (National Center for Advancing Translational Sciences (NCATS), 2008).
Out of some 220,000 compounds screened, about 2,300 (1%) were called active. Inconclusive results, whose numbers are uncertain, are shown with a selection of clear calls. Calls come from the whole dose curve; as a rule, active = well fitted inhibition curve with a large enough effect; inconclusive = small, poorly fitted or top-dose-only effect, or effect the other way; inactive = no such curve, though single readings can be large or run the other way. Potencies of inconclusive entries are left out as doubtful fits.
Note: nearly all actives have a fitted effect of over 50% in size.
Potency is the fitted concentration of half-maximal effect; tags give direction and shape of the fitted curve.

The compounds below were run against Neuropeptide S receptor (Homo sapiens) (UniProt Q6W5P4) (assay: qHTS Assay for Antagonists of the Neuropeptide S Receptor: cAMP Signal Transduction). Conditions: CHO-NPSR cells, cAMP TR-FRET, antagonist mode; series mostly up to 38.3 µM.
UniProt Q6W5P4, sequence (Q6W5P4 whole entry, looked up): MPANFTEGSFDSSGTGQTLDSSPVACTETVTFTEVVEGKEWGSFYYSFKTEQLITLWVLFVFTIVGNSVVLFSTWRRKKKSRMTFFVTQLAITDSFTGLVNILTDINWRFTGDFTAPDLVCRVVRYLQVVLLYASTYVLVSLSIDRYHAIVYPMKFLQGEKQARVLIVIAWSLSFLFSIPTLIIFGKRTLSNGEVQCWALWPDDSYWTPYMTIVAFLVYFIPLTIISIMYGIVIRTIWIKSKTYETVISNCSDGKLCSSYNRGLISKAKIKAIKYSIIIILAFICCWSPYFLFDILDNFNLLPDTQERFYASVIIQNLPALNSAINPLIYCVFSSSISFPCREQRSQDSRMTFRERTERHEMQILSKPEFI
In the case of `Cc1ccc(Nc2c(-c3ccccc3O)nc3ncccn23)cc1`, the Potency is reported as inconclusive [inhibitor, single point].
In the case of `CCOC(=O)Nc1nc(-c2ccccc2)c(C(=O)c2ccc(Cl)cc2)s1`, the Potency is reported as inconclusive [activator, partial curve].
`Cn1c(C(=O)N2CCCc3ccccc32)cc2sccc21` was tested, and the Potency was inconclusive [inhibitor, full curve, poor fit].
In the case of `OCC1(Cc2cccc(C(F)(F)F)c2)CCN(Cc2cc3ccccc3o2)CC1`, the Potency is reported as inconclusive [activator, single point].
In the case of `CSc1ccc(OC2CCCCC2NS(=O)(=O)c2ccccc2)cc1` (stereo not given), the Potency is reported as “inactive”.
In the case of `COc1ccc(-c2nc(C(N)=O)c3[nH]c(=O)n(-c4cccc(Cl)c4)c3n2)cc1OC`, the Potency is reported as inconclusive [inhibitor, single point].
In the case of `Cc1cccc(Sc2c(C=O)c3ccccc3n2C)c1`, the Potency is reported as inconclusive [inhibitor, partial curve].
In the case of `CS(=O)(=O)N1CCN(c2ccc([N+](=O)[O-])c(NCc3ccccc3)c2)CC1`, the Potency is reported as “inactive”.
With `NC(=S)N=Nc1c(O)n(CCCl)c2ccc(Br)cc12` the Potency was inconclusive [activator, single point].
In the case of `CCOC(=O)c1cnc2c(OC)cccc2c1N1CCN(c2ccccc2OC)CC1`, the Potency is reported as inconclusive [inhibitor, single point].
`CC(C)OC(=O)c1nnn(-c2nonc2N)c1CSc1ccccn1` was tested, and the Potency was “inactive”.
For `CCN(CC)C(=O)C(=O)c1cn(CC(=O)N2CCc3ccccc3C2)c2ccccc12`, the Potency was “inactive”.
With `COc1ccccc1C(=O)NCCn1cc(SCC(=O)Nc2nnc(C)s2)c2ccccc21` the Potency was inconclusive [inhibitor, single point].
For `O=C(NC(=S)Nc1ccccc1N1CCCC1)c1cccs1`, the Potency was inconclusive [activator, single point].
For `O=C(Cc1nc2ccccc2[nH]1)c1cccc([N+](=O)[O-])c1`, the Potency was “inactive”.
With `CCc1ccc(NC(=O)C[n+]2cc(-c3ccc(C)cc3)n3c2CCC3)cc1` the Potency was inconclusive [inhibitor, single point].
For `Cc1nc(Nc2ccc(Cl)c(Cl)c2)sc1C(=O)Nc1ccccc1`, the Potency was inconclusive [inhibitor, single point].
`CCCn1c(C)cc(C(=O)COc2ncnc3sccc23)c1C` was tested, and the Potency was “inactive”.
`COC(=O)c1sccc1S(=O)(=O)Nc1ccc(N2CCCCC2)cc1` was tested, and the Potency was “inactive”.
For `O=S(=O)([N-]c1nc2ccccc2nc1-n1cc[n+](Cc2ccccc2)c1)c1ccc(Br)cc1`, the Potency was inconclusive [inhibitor, single point].
